Measurements as given in publication PMC4250081.
Where a chain is given by its changes, count along the chain named. No constants are given. Whether binding was seen depends on the method and setting. Binding seen in cells or lysates may run through a third protein. Some results given as binding are weak or reduced against the parent protein; the word gives no strength. Blank lines part the entries; values can stand above or below the molecule they belong to.

Sequences of proteins named here, by UniProt entry; tags and fusion partners are left off.
UniProt P24534: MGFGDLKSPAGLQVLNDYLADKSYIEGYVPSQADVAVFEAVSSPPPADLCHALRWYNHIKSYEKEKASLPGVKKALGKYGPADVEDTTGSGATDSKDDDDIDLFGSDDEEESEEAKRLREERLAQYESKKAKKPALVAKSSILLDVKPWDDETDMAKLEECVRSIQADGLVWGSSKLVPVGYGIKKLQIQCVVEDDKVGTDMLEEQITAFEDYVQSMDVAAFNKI
UniProt Q05639: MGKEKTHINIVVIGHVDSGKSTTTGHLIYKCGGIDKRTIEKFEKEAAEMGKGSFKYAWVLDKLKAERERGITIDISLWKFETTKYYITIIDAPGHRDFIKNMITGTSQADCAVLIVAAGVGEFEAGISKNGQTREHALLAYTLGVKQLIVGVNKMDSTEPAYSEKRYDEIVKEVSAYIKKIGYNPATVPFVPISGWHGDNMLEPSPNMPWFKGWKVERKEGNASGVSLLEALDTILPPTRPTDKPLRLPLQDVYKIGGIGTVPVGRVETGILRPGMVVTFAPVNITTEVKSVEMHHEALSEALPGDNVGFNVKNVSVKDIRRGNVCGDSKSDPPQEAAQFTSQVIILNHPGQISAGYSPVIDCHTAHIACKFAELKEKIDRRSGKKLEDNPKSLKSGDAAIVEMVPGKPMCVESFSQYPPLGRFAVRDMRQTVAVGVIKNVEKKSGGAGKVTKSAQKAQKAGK
UniProt P68104: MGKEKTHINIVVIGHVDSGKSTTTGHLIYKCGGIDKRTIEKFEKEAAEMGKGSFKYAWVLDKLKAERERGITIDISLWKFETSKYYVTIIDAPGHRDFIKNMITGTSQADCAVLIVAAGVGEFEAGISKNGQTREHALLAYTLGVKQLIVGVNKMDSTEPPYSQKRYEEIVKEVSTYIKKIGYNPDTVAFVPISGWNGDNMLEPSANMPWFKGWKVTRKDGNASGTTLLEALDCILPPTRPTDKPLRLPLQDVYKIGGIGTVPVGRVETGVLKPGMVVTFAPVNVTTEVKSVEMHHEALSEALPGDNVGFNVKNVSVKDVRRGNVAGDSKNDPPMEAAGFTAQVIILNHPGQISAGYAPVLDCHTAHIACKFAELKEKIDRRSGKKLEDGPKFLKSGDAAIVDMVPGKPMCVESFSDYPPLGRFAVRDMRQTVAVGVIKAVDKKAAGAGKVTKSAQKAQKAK

Legend:
[1] = target: T1, eEF1Bα (NIH-3T3) (mouse (endogenous in NIH-3T3)) (UniProt O70251); assay: proximity ligation; Duolink in situ PLA on NIH-3T3 cells stably expressing V5-tagged eEF1A1 or V5-tagged eEF1A2; antibody to an eEF1B subunit paired with V5 antibody or TK1 antibody; incubations at 37°C in a humidity chamber
T1 sequence: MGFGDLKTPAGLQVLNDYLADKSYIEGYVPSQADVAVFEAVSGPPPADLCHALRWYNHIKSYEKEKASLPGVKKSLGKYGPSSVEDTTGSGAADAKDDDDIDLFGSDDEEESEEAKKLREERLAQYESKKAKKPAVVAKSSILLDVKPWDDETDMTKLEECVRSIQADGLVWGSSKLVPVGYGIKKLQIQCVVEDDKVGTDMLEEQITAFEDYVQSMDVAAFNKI

[2] = target: T2, eEF1Bδ (NIH-3T3) (mouse (endogenous in NIH-3T3)) (UniProt P57776); assay: as above
T2 sequence: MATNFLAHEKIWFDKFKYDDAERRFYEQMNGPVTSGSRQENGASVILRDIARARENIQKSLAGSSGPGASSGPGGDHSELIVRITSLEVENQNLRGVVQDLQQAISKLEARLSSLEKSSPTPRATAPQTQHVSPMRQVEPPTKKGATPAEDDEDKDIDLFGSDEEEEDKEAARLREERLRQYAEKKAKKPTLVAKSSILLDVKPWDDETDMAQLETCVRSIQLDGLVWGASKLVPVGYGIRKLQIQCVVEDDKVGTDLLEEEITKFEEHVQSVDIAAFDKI

[3] = target: T3, eEF1Bα (human (endogenous in HeLa)) (UniProt P24534); assay: proximity ligation; Duolink in situ PLA on HeLa cells, endogenous proteins; eEF1A2 antibody paired with an antibody to an eEF1B subunit or to TK1; incubations at 37°C in a humidity chamber
T3 sequence: T1 sequence with T8S, G43S, S75A, S82A, S83D, A93T, A95S, K117R, V136L, T156A

[4] = target: T4, TK1 (human (endogenous in HeLa)) (UniProt P04183); assay: as above
T4 sequence: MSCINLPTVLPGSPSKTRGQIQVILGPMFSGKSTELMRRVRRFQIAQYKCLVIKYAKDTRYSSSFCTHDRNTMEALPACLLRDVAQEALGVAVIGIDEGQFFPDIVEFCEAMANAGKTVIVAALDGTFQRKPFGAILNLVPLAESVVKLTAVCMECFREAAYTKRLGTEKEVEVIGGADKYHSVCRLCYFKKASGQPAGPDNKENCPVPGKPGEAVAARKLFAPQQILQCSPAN

[5] = target: eEF1Bδ (human (endogenous in HeLa)) (UniProt P29692); assay: as above
[6] = target: T5, TK1 (NIH-3T3) (mouse (endogenous in NIH-3T3)) (UniProt P04184); assay: proximity ligation; Duolink in situ PLA on NIH-3T3 cells stably expressing V5-tagged eEF1A1 or V5-tagged eEF1A2; antibody to an eEF1B subunit paired with V5 antibody or TK1 antibody; incubations at 37°C in a humidity chamber
T5 sequence: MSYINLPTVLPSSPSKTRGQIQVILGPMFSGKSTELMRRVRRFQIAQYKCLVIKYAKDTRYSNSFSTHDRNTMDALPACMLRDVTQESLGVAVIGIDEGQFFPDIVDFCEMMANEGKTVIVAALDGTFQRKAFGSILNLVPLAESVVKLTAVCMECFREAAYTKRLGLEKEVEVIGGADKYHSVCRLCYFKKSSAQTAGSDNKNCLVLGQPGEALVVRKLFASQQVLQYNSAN

- binding [1]: binds
- binding [2]: binds
Molecule: V5-tagged eEF1A2 (from UniProt Q05639 1-463)

- binding [1]: binds
- binding [2]: binds
Molecule: V5-tagged eEF1A1 (from UniProt P68104 1-462)

- binding [3]: binds
- binding [4]: no binding
- binding [5]: binds
Molecule: eEF1A2 (from UniProt Q05639 1-463)

- binding [6]: no binding
B1: eEF1Bδ (NIH-3T3) (protein, UniProt P57776 1-281)
chain: T2 sequence
